Experimental data: PMC6919601, “Identification of Plasmodium dipeptidyl aminopeptidase allosteric inhibitors by high throughput screening” (PLoS ONE, 2019)
In all, about 110,000 compounds went through this assay and about 230 (0.21%) showed an effect of 50% or more. The list shows a part of the results.

Biological target: DPAP1 (Plasmodium falciparum, UniProt Q8IIJ9)
Assay: primary screen, percent inhibition; read by cleavage of a fluorogenic dipeptide substrate; higher = more effect of the substance
Design: species or system P. falciparum D10 trophozoite lysates; single well
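Note: 30 min substrate incubation versus DMSO and 10 µM JCP410 controls.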

DPAP1, sequence (Q8IIJ9 whole entry, looked up): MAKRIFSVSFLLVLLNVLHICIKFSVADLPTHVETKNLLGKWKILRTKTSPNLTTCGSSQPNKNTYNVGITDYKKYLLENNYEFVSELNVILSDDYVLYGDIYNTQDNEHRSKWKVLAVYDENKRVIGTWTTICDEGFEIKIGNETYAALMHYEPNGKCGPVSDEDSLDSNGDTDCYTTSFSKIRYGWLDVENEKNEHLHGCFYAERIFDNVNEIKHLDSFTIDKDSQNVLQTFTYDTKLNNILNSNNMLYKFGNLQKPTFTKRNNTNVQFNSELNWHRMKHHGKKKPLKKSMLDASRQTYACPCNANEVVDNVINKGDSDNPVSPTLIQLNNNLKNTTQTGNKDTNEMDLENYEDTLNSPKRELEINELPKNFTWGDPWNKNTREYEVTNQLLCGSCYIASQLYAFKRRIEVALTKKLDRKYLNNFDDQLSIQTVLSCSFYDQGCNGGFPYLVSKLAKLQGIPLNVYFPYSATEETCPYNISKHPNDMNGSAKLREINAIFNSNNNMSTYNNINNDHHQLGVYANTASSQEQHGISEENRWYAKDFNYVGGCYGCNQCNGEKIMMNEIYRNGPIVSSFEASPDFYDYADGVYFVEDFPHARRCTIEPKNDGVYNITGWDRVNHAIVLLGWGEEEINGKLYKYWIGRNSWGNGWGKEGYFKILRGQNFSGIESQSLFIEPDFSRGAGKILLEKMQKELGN

SMILES	% Inhibition @ 10 uM [%]
COc1ccc(/C=C(\C#N)C(=O)NCc2ccco2)cc1	-5.92
C=C(C)CC1NC2CC(C)(C)C1c1c(Br)cccc12 (centres unmarked)	-2.45
CCCC1CCc2c(sc(NC(=O)C(F)(F)F)c2C(N)=O)C1 (centres unmarked)	2.45
CC1(C)CC(=O)C2=C(C1)NC(=O)CC2c1ccsc1 (centres unmarked)	-0.396
COc1ccc(C(O)(c2ccccc2)C(CN2CCOCC2)c2ccc(Cl)cc2)cc1 (centres unmarked)	1.67
CCn1nc(C)c(NC(=O)c2cnn3c(C(F)F)cc(-c4ccc(OC)cc4)nc23)c1C	-1.72
CCCCOc1ccc(C2C(=O)N(C3CCCCC3)CC(=O)N2CC2CCCO2)cc1 (centres unmarked)	2.79
COc1cc(C2c3c(-c4ccccc4O)n[nH]c3C(=O)N2CCO)ccc1OCCC(C)C (centres unmarked)	8.13
CC(Nc1oc(COc2ccccc2)nc1C#N)c1ccccc1 (centres unmarked)	1.35
C/C=C(\C)CN1CCN(C/C=C/c2ccccc2)CC1	0.0792
CC1=C(C(N)=O)C(c2ccc(O)cc2)n2nc(SCc3ccccc3Cl)nc2N1 (centres unmarked)	8.32
COc1ccc(C2C=C(c3ccc(Cl)cc3)Nc3ncnn32)c(OC)c1OC (centres unmarked)	-5.19
O=S(=O)(c1cccc2nsnc12)N1CCN(Cc2ccccc2)CC1	-3.72
CCOC(=O)c1sc2nc3c(cc2c1NC(=O)c1ccccc1)COC(C)(C)C3	-2.65
CC[C@H](C)[C@H](NC(=O)N1CCN(C)CC1)C(=O)N[C@@H](CCc1ccccc1)C(=O)CO	-4.82
CC1CCN(S(=O)(=O)c2ccc3c(ccn3CC(=O)NCc3ccc(OC(C)C)cc3)c2)CC1	0.00226
CS(=O)(=O)N(CC(=O)Nc1ccc(S(=O)(=O)N2CCOCC2)cc1)c1cccc(F)c1	2.65
OCc1ccc(Oc2ccccc2)cc1	2.44
O=C(Nc1ccc2c(c1)oc1ccccc12)c1ccco1	-5.59
CC(=O)Nc1ccc(S(=O)(=O)Nc2ccc(C(=O)c3ccccc3)cc2)cc1	-4.05
C=CCSc1nc2c(c(=O)n1Cc1ccccc1)C(C1CCCCC1)Cc1ccccc1-2 (centres unmarked)	3.01
CCN1C2=NCCN2c2cc(C)c(C)cc21	-3.09
CC(Nc1sc(S(C)(=O)=O)nc1S(=O)(=O)c1ccc(Cl)cc1)c1ccccc1 (centres unmarked)	-4.04
Cc1cc(NC(=O)COc2ccc(Cl)c(C)c2)no1	3.53
CC1CCCN(C(=O)c2ccc(C/N=c3/c(N4CCCCC4)c(O)c3=O)cc2)C1 (centres unmarked)	3.24

SMILES	% Inhibition @ 10 uM [%]
Nc1c(-c2nc(-c3ccccc3F)no2)nnn1-c1cccc(C(F)(F)F)c1	1.93
Cc1ccc(F)c(NC(=O)Cn2nc(C(F)F)cc2C)c1	13.5
CC(=O)Nc1cccc(NC(=O)c2ccccc2C)c1	-0.796
Cc1ccc(-c2nc(CN3CCCCC3)cc(CN3CCCCC3)c2O)cc1	-2.18
CC1=C(C(=O)NCCN2CCCCC2C)C2(CCCCC2)OC1=O (centres unmarked)	-4.61
O=C(NCc1ccc2c(c1)OCO2)C1c2ccccc2C(=O)N2CCc3ccccc3C12 (centres unmarked)	-4.43
COc1ccc(OC)c(/C=C(\C#N)c2nc3ccccc3n2C)c1	0.611
COc1ccc(Br)cc1CN1CCc2cc(OC)c(OC)cc2C1	-3.72
COC(=O)C1=CN(Cc2ccc(F)cc2)C=C(C(=O)OC)C1c1ccccc1OCc1ccccc1	0.219
COc1ccc(-c2nc3c4cnn(-c5ccc(C)cc5)c4ncn3n2)cc1OC	-9.83
O=C(O)c1sc2cc([N+](=O)[O-])ccc2c1Cl	-4.21
COc1cc([C@H]2NCC[C@@]3(O)CCCC[C@H]23)cc(OC)c1OC	-5.41
Cn1c(-c2ccc3c(c2)OCO3)c(C(=O)O)c(=O)c2ccccc21	5.17
CCO/C(O)=C1/C(CC)=NC2=C(C(=O)CCC2)C1c1ccccc1 (centres unmarked)	0.162
CC1=NN2C(=O)NC(C(F)(F)F)(C(F)(F)F)N=C2S1	1.72
Cn1c(=O)c2c(nc(NCC3CCCO3)n2Cc2cccc(Br)c2)n(C)c1=O (centres unmarked)	0.431
CC1(C)Oc2ccc3ccc(=O)oc3c2CC1O (centres unmarked)	2.13
CC1CCN(c2ncnc3onc(-c4ccc(F)cc4)c23)CC1	1.23
CCOc1ccc(Nc2cc(C)nc(Nc3ccc(OCC)cc3)n2)cc1	2.45
CCCCOC(=O)Nc1nnc(-c2ccc(C(C)(C)C)cc2)s1	1.13
COc1ccc(C(=O)Nc2ccccc2Cl)cc1Br	7.67
COc1ccc(-n2nnc(-c3nsc(NC(=O)c4cccc(C)c4)n3)c2C)cc1Cl	0.936
COC(=O)C1C(c2ccccc2)NC(c2ccccc2)C(C(=O)OC)S1(=O)=O (centres unmarked)	1.21
Cc1cccc(NC(=O)COc2ccc(Br)cc2)c1C	0.035
O=[N+]([O-])c1ccc(C2Nc3ccccc3N2)o1	2.5
